Results taken from the supplement of paper PMC3334620.
Whole data set: some 33,000 sequences, median “E-score (-0.5 to 0.5)” near -0.012, cut for the highest 2% near 0.27. Some of the results follow.

target: T1, Vhr1 (UniProt P40522); experiment: PBM E-score (8-mer binding enrichment) (E-score (-0.5 to 0.5)); higher = stronger / more preferred TF binding; most listed sequences are background and not binding sites; conditions: protein concentration: 200 nM; construct: GST-full length
T1 sequence: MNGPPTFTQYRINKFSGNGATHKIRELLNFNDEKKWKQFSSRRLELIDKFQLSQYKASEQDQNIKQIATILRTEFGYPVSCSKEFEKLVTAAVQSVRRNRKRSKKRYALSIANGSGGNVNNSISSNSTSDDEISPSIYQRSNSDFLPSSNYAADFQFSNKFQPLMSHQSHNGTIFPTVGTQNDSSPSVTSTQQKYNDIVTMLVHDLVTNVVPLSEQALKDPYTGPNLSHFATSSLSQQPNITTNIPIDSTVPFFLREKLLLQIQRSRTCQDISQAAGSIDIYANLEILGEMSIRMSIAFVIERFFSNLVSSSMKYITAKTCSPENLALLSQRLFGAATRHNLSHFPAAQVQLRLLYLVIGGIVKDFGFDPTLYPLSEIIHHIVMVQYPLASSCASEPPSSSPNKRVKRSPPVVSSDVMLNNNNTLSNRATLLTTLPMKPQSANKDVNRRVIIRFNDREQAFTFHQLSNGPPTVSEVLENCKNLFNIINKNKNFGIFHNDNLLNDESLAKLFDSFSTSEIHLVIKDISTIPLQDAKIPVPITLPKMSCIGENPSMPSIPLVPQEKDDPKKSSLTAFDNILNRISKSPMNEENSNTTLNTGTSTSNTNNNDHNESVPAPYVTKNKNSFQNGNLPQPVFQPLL
How it was run: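 Bound GST-tagged yeast transcription factors, applied at about 100-200 nM to double-stranded universal all-10-mer Agilent arrays, were detected with fluorescent anti-GST. Scans were normalised with masliner. A modified Wilcoxon-Mann-Whitney statistic, the E-score, was assigned to each ungapped eight-base word pooled with its reverse complement by the Universal PBM Analysis Suite.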

| Sequence | PBM E-score |
| --- | --- |
| CGGCCTTA | -0.12 |
| ACAAGTGC | -0.0909 |
| ATCTCTGA | 0.0425 |
| CCTAACCG | -0.0949 |
| CAAAACGG | 0.106 |
| GCTCTTCC | -0.16 |
| AAACCGAC | 0.14 |
| ACTTGAAG | -0.00794 |
| ATTCATCG | 0.121 |
| CGTGCCGC | -0.0924 |
| ACACTGAG | 0.218 |
| TCATAAAA | 0.00438 |
| CCGCGGGC | 0.228 |
| CTAAATGA | -0.0399 |
| AAGCCCTC | -0.203 |
| AAAGTGGT | 0.0656 |
| ACACATAC | 0.29 |
| ATCAAGCC | 0.0404 |
| GGACTGAA | -0.176 |
| CCAGTGTC | 0.0873 |
| AGCGGTTC | 0.00261 |
| ACACCTAA | 0.0791 |
| ACGGAATG | -0.133 |
| CAGAAACA | -0.0262 |
| GCAAACTA | 0.0776 |

| Sequence | PBM E-score |
| --- | --- |
| AATCCGAT | 0.187 |
| CCCTCATC | -0.0585 |
| CTGTAAAG | -0.268 |
| CATGCGAA | 0.161 |
| CAGTCCGA | 0.126 |
| CCGTGGAG | -0.0622 |
| CCTGCCCA | -0.0853 |
| ATTGTGAG | 0.143 |
| AATAGACG | -0.0346 |
| CCTCGCAG | -0.0348 |
| ACGCCAAT | -0.0106 |
| GAAATATA | 0.0204 |
| CAAGAGAG | -0.178 |
| CGCCTGTC | -0.206 |
| CAGTCAGG | 0.175 |
| ATCGTCAG | 0.0338 |
| CTACTGCA | -0.133 |
| ATCACTGA | 0.136 |
| CAGGCCGG | -0.269 |
| ACGAAATA | -0.123 |
| GCCGTACC | 0.116 |
| TAGATACA | -0.0628 |
| AAGGCGTC | -0.166 |
| AACCACAG | 0.237 |
| GTCGAGGA | -0.221 |

| Sequence | PBM E-score |
| --- | --- |
| ACCATGCC | 0.127 |
| GCAGGGCC | -0.0834 |
| AACGGTCA | 0.0912 |
| CGACTTTC | -0.0185 |
| GCACAGTA | 0.142 |
| CATGGGAC | 0.02 |
| CGCAAGAA | 0.0514 |
| CCGAGACG | -0.0932 |
| AACTGCCG | -0.194 |
| GCAAGAAA | -0.071 |
| ATCGTATC | 0.0818 |
| AATACCGG | 0.0874 |
| AGTCCTTG | -0.0382 |
| GATGGCAA | 0.0306 |
| GGACGGAC | 0.0805 |
| TAAAGCTA | -0.189 |
| CGCCGCTA | -0.0131 |
| AGTGCCCA | -0.0649 |
| CCTATAGC | -0.195 |
| ACGTCATA | 0.0344 |
| AACTGCCA | -0.0568 |
| AGCGCATA | -0.0303 |
| CGCTCAGA | 0.0321 |
| CCTTCGGA | -0.231 |
| AGCATACG | -0.0916 |

| Sequence | PBM E-score |
| --- | --- |
| ATCCCACG | 0.0325 |
| CTTAGGTC | -0.0837 |
| CTCACTAA | 0.236 |
| CTAATATC | 0.174 |
| GCCAGATA | -0.154 |
| ACCATCAA | -0.152 |
| CCGTCAGC | -0.142 |
| CACAATGG | 0.176 |
| CATCATTA | 0.214 |
| TTATATAA | 0.161 |
| GAGCATGC | 0.106 |
| AGCGGCGG | 0.269 |
| AGCATATA | 0.224 |
| CGCCCCAG | 0.0125 |
| CCTTGATC | 0.18 |
| ACATGAAG | -0.119 |
| CCAACTGC | -0.0246 |
| ACAGCGGA | 0.00585 |
| AAGCGGGA | -0.0703 |
| CACCGAGA | 0.107 |
| AACCGCAC | 0.151 |
| GGGTCAGA | -0.0746 |
| CTCTACAA | -0.00129 |
| AGATACAA | -0.0163 |
| GATTAGAC | -0.0787 |

| Sequence | PBM E-score |
| --- | --- |
| GCACATGC | -0.194 |
| GGTGCTAC | -0.0576 |
| CCGGATTA | 0.106 |
| AGCGGACC | -0.167 |
| CTGTCGCA | -0.138 |
| ATAACGGC | -0.153 |
| ATTGCTTA | -0.122 |
| ACCAGAAT | 0.052 |
| ACACATCG | 0.184 |
| CATAAACG | -0.00907 |
| GGCGTCAA | 0.0193 |
| ACCCGCAT | 0.251 |
| ATTTTGTG | -0.0326 |
| CCACAGCG | 0.0478 |
| GCCCGCCA | 0.13 |
| CAGCTTAG | -0.0924 |
| ATTTGCAC | -0.211 |
| ATACTCAC | 0.17 |
| CGTACATC | 0.00023 |
| ATGAGGGG | -0.00734 |
| GAGTAAGC | -0.00885 |
| CGCGGCCA | -0.0423 |
| GTAGCTTA | 0.00186 |
| CATCCTCC | -0.0421 |
| AGAACTTG | -0.0733 |

| Sequence | PBM E-score |
| --- | --- |
| AATGGCTG | 0.0135 |
| AAGCCAGC | 0.0934 |
| CTTCTATC | -0.201 |
| CCGGCCTA | 0.0535 |
| CAACCCTA | -0.119 |
| ATAGTCGC | 0.243 |
| CGTGGCTC | 0.0649 |
| ATGTGAGA | 0.0265 |
| ATTACTCG | 0.198 |
| ATACTGTG | 0.0981 |
| ATCATTAC | 0.274 |
| CCGCATTC | -0.105 |
| ACCACTCA | 0.252 |
| CCTCGCCC | 0.118 |
| ACGGGGCT | -0.151 |
| CTAATCAG | 0.0152 |
| GTTGATTA | 0.239 |
| CAGCACAA | 0.0898 |
| ACAAGAAC | 0.169 |
| CCGCCATC | 0.0291 |
| TATCTACA | 0.114 |
| GAGGTAAC | -0.0516 |
| ATGTGCGC | -0.0331 |
| CAGTGGAG | 0.0523 |
| CGGCTTCA | -0.112 |

| Sequence | PBM E-score |
| --- | --- |
| AGGCGTAG | -0.22 |
| CGCTCGGC | 0.183 |
| CCCGACCA | 0.105 |
| ACAAGCAG | -0.105 |
| CACTTGCG | -0.151 |
| ACGGACGT | -0.0921 |
| CAATTGCA | -0.101 |
| GATGAGCA | 0.147 |
| AATAGAAA | -0.209 |
| CACAAAGC | 0.0284 |
| GTCCGCAC | 0.133 |
| AGAGTTTC | -0.274 |
| GAACCCTA | 0.0459 |
| CAGGAGTA | -0.00382 |
| CGGATTTC | -0.0131 |
| TCAGGGGA | 0.134 |
| AAATCTCG | -0.0574 |
| AGTCCCAT | -0.00349 |
| TCTGTCCA | -0.0512 |
| CAGTGAGG | -0.0597 |
| GGTTCGAA | 0.123 |
| CCTCTCAA | -0.219 |
